The campaign covered roughly 150,000 compounds. About 540 (0.36%) showed an effect of 50% or more. The list shows a part of the results.

Results on 54 compounds are retold here after ChEMBL document CHEMBL4888484, “Replenishing the malaria drug discovery pipeline: Screening and hit evaluation of the MMV Hit Generation Library 1 (HGL1) against asexual blood stage Plasmodium falciparum ,using a nano luciferase reporter read-out” (2022).

This assay relates to Plasmodium falciparum. Nature of the assay: Primary screen in NF54 nanoGlo assay, in single point, at 2uM, 72h; a lower Z score goes with more inhibition. Format: functional, Erythrocyte. The note with it: timepoint 72 hour.
Turning to `CC(=O)c1sc(Nc2cccnc2)nc1C`, the % Inhibition (as a rule, the drop in the measured response relative to a control, in per cent) was determined as 0% and the Z score was 0.04.

On to `CN1CCCN(C(=O)c2ccc3c(c2)n(CC2CC2)c(=O)n3C2CCCCC2)CC1`, for which the “% Inhibition” value is 2% and the Z score is given as -0.39.

For the compound `Cc1ccc(-c2ccc(CCC(=O)N3CC(C)OC(C)C3)n2-c2ccc(CC#N)cc2)c(C)c1` (stereo not drawn), the “% Inhibition” value was -15% and the Z score was 1.56.

On to `O=C1NCCN(C(=O)NCc2csc3c2CCCC3)[C@H]1c1cccc(F)c1`, for which the “% Inhibition” value is listed as -6% and the Z score is 1.17.

Consider `Cc1cccc(NC(=O)N(C)CCc2noc(C(=O)NCc3ccc4c(c3)OCO4)n2)c1`, for which the “% Inhibition” value was -24% and the Z score amounted to 2.2.

Take `c1cn(CCc2cn[nH]c2)c(-c2ccc3nonc3c2)n1`: the “% Inhibition” value turned out to be 9% and the Z score is given as -1.22.

Consider `O=S1(=O)CCC(Cc2nc(COc3ccccc3)nn2CCO)CC1`, for which the “% Inhibition” value is reported as -2% and the Z score is reported as 0.21.

Regarding `CN(C)C(=O)[C@@H]1CN(c2nccnc2C#N)CCO1`, the “% Inhibition” value turned out to be 7% and the Z score is on record as -0.94.

For the compound `Cc1nc(-c2c(C)noc2C)sc1C(=O)N1CC2(CCC2)c2ccccc21`, the “% Inhibition” value is -7% and the Z score is reported as 1.07.

For `CC(OC(=O)C1Cc2cc(Cl)ccc2O1)C(=O)Nc1ccc(S(N)(=O)=O)cc1` (stereo not drawn), the “% Inhibition” value was 2% and the Z score is -0.26.

Consider `N[C@H]1CCc2cc(C(=O)NCC3(c4ccccc4)CC3)ccc2NC1=O`, for which the “% Inhibition” value was -11% and the Z score is reported as 1.75.

In the case of `O=C(NCCc1ccco1)c1ccc2c(c1)nc1n2CCCC1`, the “% Inhibition” value was -18% and the Z score is recorded as 2.5.

Consider `O=C(NCCc1c[nH]cn1)[C@@H]1C[C@H]2C(=O)NCCCCCCN(S(=O)(=O)c3ccc4c(c3)CCC4)[C@H]2C1`, for which the “% Inhibition” value is recorded as -20% and the Z score worked out at 2.61.

`CCOC1CN(C(=O)Cc2c(CC)nn(C)c2CC)C1`: the “% Inhibition” value is -12% and the Z score stood at 1.26.

Regarding `C[C@H]1CN(C(=O)NCc2ccncc2OCC(F)(F)F)CCCO1`, the “% Inhibition” value is -2% and the Z score came to 0.32.

`CCOc1ccccc1NC(=O)c1cc2n(n1)[C@H](C(F)(F)F)C[C@H](c1ccco1)N2`: the “% Inhibition” value was -4% and the Z score turned out to be 0.83.

With `C[C@H](O)c1cc2n(n1)CCN(C1CCN(C(=O)c3ccccc3)CC1)C2`, the “% Inhibition” value is reported as -3% and the Z score came out at 0.41.

Turning to `CC(C)c1c(C(=O)N2CCN(c3ccccc3)CC2)cnn1-c1nccc(-c2ccco2)n1`, the “% Inhibition” value is reported as 8% and the Z score is given as -1.15.

As to `CC(=O)NC1(c2noc(CCn3cc(C)cn3)n2)CCCCCC1`, the “% Inhibition” value was -8% and the Z score came to 0.89.

Take `COc1ccc2c(c1)C=C(CN1CCCn3nc([C@H](C)O)cc3C1)CO2`: the “% Inhibition” value stood at 4% and the Z score is given as -0.47.

On to `O=C(N1CCC(O)CC1)C(F)(F)Cl`, for which the “% Inhibition” value worked out at 33% and the Z score was -0.97.

In the case of `CC(=O)CCC(=O)N1CCOCC1C1CCCCC1O` (stereo not drawn), the “% Inhibition” value is given as -2% and the Z score was found to be 0.32.

Take `OCCC[C@H]1CCCN(c2nc3nonc3nc2NC2CC2)C1`: the “% Inhibition” value amounted to 10% and the Z score is given as -1.3.

For the compound `CCc1cc(N2CCO[C@H](c3nc(C)cs3)C2)nc(CC)n1`, the “% Inhibition” value is listed as -16% and the Z score is recorded as 1.79.

Take `CC(C)C[C@H]1COCCN1Cc1ccc(C#CCO)s1`: the “% Inhibition” value turned out to be 0% and the Z score was -0.02.

In the case of `C[C@H]1C(=O)N(c2ccccc2)CCN1c1nc(N)nc2[nH]ncc12`, the “% Inhibition” value is -7% and the Z score is given as 1.24.

As for `CC1CCN(c2nccnc2Oc2ccc(C(=O)NCc3ccco3)cc2)CC1`, the “% Inhibition” value is listed as -1% and the Z score is reported as 0.13.

On to `O=C(c1ccc2ncsc2c1)N1CCc2sccc2[C@H]1c1ccccc1`, for which the “% Inhibition” value is listed as -8% and the Z score came to 0.93.

With `Cc1cccnc1CN(C)C(=O)CC[C@H](C)N1CCOCC1`, the “% Inhibition” value is recorded as -8% and the Z score worked out at 1.08.

On to `Cc1ccncc1CC(=O)Nc1cc(Cl)c(OCC(F)(F)F)c(Cl)c1`, for which the “% Inhibition” value is -14% and the Z score came to 2.26.

For `O=C(c1ccco1)N1CCC(n2cc(-c3nc(C4CC4)no3)nn2)CC1`, the “% Inhibition” value is on record as -14% and the Z score is 2.47.

On to `CC1CN2CCCC2CN1S(=O)(=O)CCC1CCOCC1` (stereo not drawn), for which the “% Inhibition” value is reported as -8% and the Z score was 1.19.

As for `O=C1N[C@H]2CC[C@@H]1CN(C(=O)c1ccc(-c3cc(O)c(F)c(F)c3)cc1)C2`, the “% Inhibition” value was -14% and the Z score is reported as 1.77.

For `NC(=O)C1=NO[C@@H](CNC(=O)NCCOc2ccc3c(c2)OCO3)C1`, the “% Inhibition” value is on record as 26% and the Z score was -2.95.

For the compound `COc1cccc(C(=O)N2CCC(CN3C[C@@H](C(=O)NCC4CC4)CC3=O)CC2)c1OC`, the “% Inhibition” value is listed as -3% and the Z score was 0.39.

With `CCc1nn(C)c(CC)c1CN1CC(=O)N[C@@H](C)C1`, the “% Inhibition” value was 1% and the Z score is given as -0.13.

Regarding `O=C(CCS(=O)(=O)c1ccc(Cl)cc1)Nc1nnc(-c2ccccc2Cl)o1`, the “% Inhibition” value is given as -13% and the Z score was determined as 2.1.

As for `Cc1cc(-c2ccc(-c3cnc(N)[nH]3)cc2)ccn1`, the “% Inhibition” value is listed as -1% and the Z score is given as 0.12.

Take `CN1C(=O)c2ccc(NC(=O)c3ccnn3-c3ccccc3)cc2C1=O`: the “% Inhibition” value is reported as -2% and the Z score is 0.22.

For `COc1ccc(CN2CCN(Cc3cnc(C)s3)C[C@@H]2CCO)c(F)c1`, the “% Inhibition” value is reported as -7% and the Z score came to 0.92.

Regarding `COc1ccccc1[C@@H]1CCCN1c1cccc(C(=O)O)n1`, the “% Inhibition” value is -14% and the Z score is 3.03.

For the compound `Cc1nnc(N(C)Cc2ccoc2C)c(C#N)c1C`, the “% Inhibition” value is -10% and the Z score is given as 1.58.

`O=c1c2c(Cl)cccc2ncn1[C@H]1CCOC1`: the “% Inhibition” value is recorded as -2% and the Z score is reported as 0.22.

Regarding `CCC(CC)CN(CCC#N)c1ncccn1`, the “% Inhibition” value is listed as -17% and the Z score was found to be 2.51.

Regarding `Cc1ccc2c(c1)NC(=O)c1cc(S(=O)(=O)N3CCC(C)CC3)c(N3CCCC3)cc1O2`, the “% Inhibition” value was -14% and the Z score is recorded as 1.99.

Consider `Cc1c(CN2CCC[C@H](N(C)CCc3ccccn3)C2)[nH]c2c(C)cccc12`, for which the “% Inhibition” value is listed as -1% and the Z score is listed as 0.18.

In the case of `C[C@H](c1ccccc1)N(CC(N)=O)C(=O)c1cn2c(n1)CCC2`, the “% Inhibition” value came to 2% and the Z score is -0.24.

Take `C[C@H](NCc1nnc(C2CC2)s1)c1c(F)cccc1Cl`: the “% Inhibition” value was -20% and the Z score is recorded as 2.

For `Cc1nc(NC(=O)COC[C@H]2CCCO2)sc1Br`, the “% Inhibition” value is recorded as -3% and the Z score worked out at 0.38.

With `Cc1nn(C)c2nc(N(C)[C@H]3CCN(C)C3)sc12`, the “% Inhibition” value is -3% and the Z score was determined as 0.62.

For the compound `O=C(CS(=O)(=O)Cc1cc(Cl)cc2c1OCOC2)N1CCC1`, the “% Inhibition” value is -15% and the Z score turned out to be 1.42.

Regarding `CCc1nnc(CNc2nc(C)nc3onc(C)c23)s1`, the “% Inhibition” value is listed as 5% and the Z score is given as -1.04.

`Cc1cc(CNCCCN2CCN(C)CC2)ccc1Br`: the “% Inhibition” value is given as 10% and the Z score is on record as -1.

As to `COc1cc(N[C@H]2CC(C)(C)Cc3nc(N4CCC(O)CC4)ncc32)ncn1`, the “% Inhibition” value turned out to be 12% and the Z score is given as -1.68.
